{
  "source": "PubChem BioAssay AID588342",
  "about": "(National Center for Advancing Translational Sciences (NCATS), 2011)",
  "note": "Hit rate of the full screen: of about 360,000 compounds, about 25,000 (6.9%) were called active. Inconclusive results, whose numbers are uncertain, are shown with a selection of clear calls. Calls come from the whole dose curve; as a rule, active = well fitted inhibition curve with a large enough effect; inconclusive = small, poorly fitted or top-dose-only effect; inactive = flat fitted curve, though single readings scatter. Potencies of inconclusive entries are doubtful fits and often do not repeat. Potency is the fitted concentration of half-maximal effect; tags give direction and shape of the fitted curve.",
  "data": [
    {"target": "Luciferin 4-monooxygenase (Photinus pyralis) (UniProt P08659)", "sequence (P08659 whole entry, looked up)": "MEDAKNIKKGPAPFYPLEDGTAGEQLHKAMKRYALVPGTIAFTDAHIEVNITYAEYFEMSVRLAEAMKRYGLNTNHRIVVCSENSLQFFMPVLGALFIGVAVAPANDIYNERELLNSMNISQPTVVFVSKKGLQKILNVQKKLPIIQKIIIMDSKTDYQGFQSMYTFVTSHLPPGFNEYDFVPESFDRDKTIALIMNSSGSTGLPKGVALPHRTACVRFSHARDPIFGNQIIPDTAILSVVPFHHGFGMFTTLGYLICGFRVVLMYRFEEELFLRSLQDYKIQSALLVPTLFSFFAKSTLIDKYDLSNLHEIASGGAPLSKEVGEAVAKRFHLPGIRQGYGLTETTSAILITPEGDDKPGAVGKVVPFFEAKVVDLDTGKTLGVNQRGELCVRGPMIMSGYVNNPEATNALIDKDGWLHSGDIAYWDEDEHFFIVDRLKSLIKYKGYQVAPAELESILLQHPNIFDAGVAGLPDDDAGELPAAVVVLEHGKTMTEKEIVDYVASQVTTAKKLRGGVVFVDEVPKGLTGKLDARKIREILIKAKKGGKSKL", "assay": "qHTS profiling assay for firefly luciferase inhibitor/activator using purifed enzyme and Km concentrations of substrates (counterscreen for miR-21 project); note: nearly all actives have a fitted effect of over 55% in size", "conditions": "purified FLuc, luminescence inhibition; series mostly up to 57.5 µM", "outline": "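Purified P. pyralis luciferase (10nM final) with 10uM D-luciferin and 10uM ATP (Km levels) in 50mM Tris acetate pH 7.5, 10mM Mg acetate, 0.01% Tween-20, 0.05% BSA; qHTS 6-point titration, ~60 µM downward; luminescence read.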", "values": [
      {"smiles": "C/C=C/C=C\\C(=O)Nc1cccc(C2=NOC3(C2)C[C@H](C(N)=O)N(C(=O)CC#N)C3)c1", "note": "(stereo not given in full)", "Potency": "inconclusive: 26.9 µM [inhibitor, partial curve]"},
      {"smiles": "COc1ccc(C(=O)Nc2ccc3nc(C)sc3c2)cc1OC", "Potency": "inconclusive: 30.1 µM [inhibitor, single point]"},
      {"smiles": "CC(C)(C)NC(=O)c1oc2ccccc2c1NC(=O)c1ccc(F)cc1", "Potency": "inactive"},
      {"smiles": "COc1ccc(CNC(=O)C(c2ccco2)N(Cc2ccccc2)C(=O)Cc2cccs2)cc1", "note": "(stereo not given)", "Potency": "inactive"},
      {"smiles": "COc1ccccc1CNC(=O)c1cc(C)nc2ccccc12", "Potency": "inconclusive: 37.9 µM [inhibitor, partial curve, poor fit]"},
      {"smiles": "CCOC(=O)c1ccc(NC(=S)NNC(=O)COC)cc1", "Potency": "inconclusive: 26.9 µM [inhibitor, single point]"},
      {"smiles": "Cc1ccccc1C(=O)c1cccn1CC(=O)NCc1cccc(Cl)c1", "Potency": "inconclusive: 23.9 µM [inhibitor, partial curve]"},
      {"smiles": "C[C@@H]1CN(Cc2nc(Cc3ccccc3F)no2)C[C@H](C)O1", "Potency": "inconclusive: 37.9 µM [inhibitor, partial curve, poor fit]"},
      {"smiles": "CC(=O)Nc1ccc(/C=N/NC(=O)c2cc3ccccc3nc2C)cc1", "Potency": "inactive"},
      {"smiles": "CCC(=O)c1ccc(N2CCC(C)CC2)c(F)c1", "Potency": "active: 21.3 µM"},
      {"smiles": "COc1ccc(OCC(=O)N/N=C/c2ccncc2)cc1", "Potency": "inactive"},
      {"smiles": "COc1ccc(Cl)cc1C(=O)Nc1ccc2c(c1)OCO2", "Potency": "active: 23.9 µM"},
      {"smiles": "Cc1cccc2nc(CNc3ccc(F)cc3)cn12", "Potency": "inconclusive: 37.9 µM [inhibitor, partial curve, poor fit]"},
      {"smiles": "CS(=O)(=O)N1CCC(Oc2ccccc2C(=O)N2CCC[C@H]2CO)CC1", "Potency": "inactive"},
      {"smiles": "Cc1ccccc1C(=O)Nc1cccc(NC(=O)Cn2cnc3c(=O)n(C)c(=O)n(C)c32)c1", "Potency": "inconclusive: 26.9 µM [inhibitor, partial curve, poor fit]"},
      {"smiles": "Cc1cccc(CC(C)NC(=O)c2cc(COc3ccc(F)cc3F)on2)n1", "note": "(stereo not given)", "Potency": "inconclusive: 19 µM [inhibitor, partial curve]"},
      {"smiles": "COc1ccccc1NC(=O)O/N=C(\\N)c1ccccc1", "Potency": "inconclusive: 23.9 µM [inhibitor, single point]"},
      {"smiles": "CC(C)(C)OC(=O)N1CCC(c2c(C(=O)N3CCN(C(=O)c4ccco4)CC3)cnn2-c2ccccc2Cl)CC1", "Potency": "inactive"},
      {"smiles": "CCOC(=O)c1ccc(NC(=O)c2nn(C)c3c2COc2ccccc2-3)cc1", "Potency": "inactive"},
      {"smiles": "O=C(COC(=O)CNC(=O)c1sc2ccccc2c1Cl)NC1CCS(=O)(=O)C1", "note": "(stereo not given)", "Potency": "active: 16.9 µM"}
    ]}
  ]
}
